PubChem BioAssay AID504842 (National Center for Advancing Translational Sciences (NCATS), 2011)
Screen size: about 330,000 compounds; about 100 (0.03%) were called active. Not shown: some 1% with an inconclusive outcome. Calls follow the shape of the dose curve; as a rule, active = well fitted inhibition curve with a large enough effect; inconclusive = small, poorly fitted or top-dose-only effect; inactive = flat fitted curve, though single readings scatter. The list shows a part of the results, in another mix than the full data.

system: Chaperonin Mm-Cpn (Methanococcus maripaludis); test: Inhibitors of TCP-1 ring complex (TRiC) of Methanococcus maripaludis (MmCpn): qHTS; details: purified Mm-Cpn ATPase, ADP Transcreener TR-FRET; series mostly up to 76.9 µM; activity, negative = inhibition: at the top concentration; also: nearly all actives have a fitted effect of over 80% in size;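 as to Potency: enzyme at 25 nM with ATP substrate at 10 µM during the reaction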
Excerpt: The eukaryotic chaperonin TRiC (for TCP-1 ring complex) is an essential and conserved chaperone required for the folding and activation of 10-15% of the proteins encoded by the human genome. […] The TRiC complex consist of two stacked 7-9 membered rings, each containing a central cavity. Substrates are folded within the cavity in an ATP-dependent manner. TRiC is a complex of eight different, essential proteins. As each of the genes encoding the eight subunits is essential for cell viability and no protocol has been developed to over-express this enzyme to high levels. That is why several groups studying the TRiC chaperonin have turned to the archaeal homolog of TRiC, Methanococcus maripaludis (Mm-CPN), and have used this enzyme as a model system for the study of the type II chaperonin family. Small molecule inhibitors of the Mm-CPN enzyme would be extremely useful to study the mechanism of chaperonin activity. Importantly, TRiC and Mm-CPN both require ATP hydrolysis for function. Furthermore, the ATP binding sites are highly conserved among these type II chaperonins. This provides us with an easy, well tested and straightforward assay to identify inhibitors of chaperonin activity. The Mm-CPN assay was developed in 1536-well plate format using the HTRF Transcreener ADP assay kit (Cisbio, Bedford, MA). This assay applied the time resolved fluorescence resonance energy transfer (TR-FRET) principle. ATP in the presence of Mm-CPN is converted to ADP + Pi. An antibody labeled with Eu3+-Cryptate specific and bound to ADP labeled with […] (d2) competes with the unlabeled ADP generated by Mm-CPN. The resulting TR-FRET signal is inversely proportional to the concentration of ADP in the sample. In this assay a reduction in TR-FRET signal is observed with ATP turnover. NIH Chemical Genomics Center [NCGC] NIH Molecular Libraries Probe Centers Network [MLPCN] MLPCN Grant: DA030554-01A1 Assay Submitter (PI): Judith Frydman, Stanford University
Purified Mm-CPN was supplied by the laboratory of Dr. Judith Frydman. Protein samples were stored at -80C as single use aliquots. Protein was thawed in ambient temperature water bath and placed on ice once thawed. Buffer was prepared fresh day of screen. The buffer composition below was used to prepare the working solution of the Mm-CPN protein and ATP substrate. The buffer is comprised of 30 mM TRIS pH 7.4, 100mM KCl, 5mM MgCl2, and 1mM DTT. A final concentration of 25nM Mm-CPN and 10uM ATP per well were used in the screen. Instructions according to the manufacturer were followed for the ADP Transcreener kit. Used 1536 well Greiner white, medium binding (MB), solid bottom plates. Plates were read on the PerkinElmer EnVision plate reader using Excitation = 320 nm and Emission = […], 665 nm. Protocol- 1.Dispense 1.5ul per well of working [Mm-CPN] = 50nM (or 75 ng / well) 2.Spin plate at 1000 rpm for 30 seconds 3.23nl of compound transferred per well 4.Incubate at 37degC for 10 minutes 5.Dispense 1.5ul per well of working [ATP] = 20uM 6.Incubate at 37degC for 30 minutes 7.Dispense 3ul per well of Anti-ADP Cryptate / ADP-d2 mix (prepared as instructed by Cisbio) 8.Incubate at ambient for 30 minutes 9.Read using EnVision
% is scaled to controls: 0 for no effect and ±100 for the full control effect; potency is read from the fitted curve at half-maximal effect.

Compound	activity, negative = inhibition	Potency
COC(=O)C1=C(O)/C(=C\c2ccc(OCC(=O)Nc3ccccc3)cc2)N=C1C	inactive: 0.849%	
[2H]c1c([2H])c([2H])c(-c2nc(N3CCCCCC3)sc2C(=O)c2ccccc2)c([2H])c1[2H]	inactive: -8.91%	
CCN1C(=O)[C@H]2[C@@H](c3ccc(-c4ccc(F)cc4)cc3)N3CCCC[C@@]3(C(=O)OC)[C@H]2C1=O	inactive: -2.81%	
N#C/C(=C/c1ccc(N2CCCC2)c([N+](=O)[O-])c1)c1nc2ccccc2[nH]1	inactive: 1.56%	
O=C(NCC#CCSc1nnc(-c2cccc3ccccc23)o1)c1cccs1	inactive: -2.99%	
CCN(CC)CCOc1ccc(/C(=C(/Cl)c2ccccc2)c2ccccc2)cc1	inactive: 0.668%	
COC(=O)[C@@H]1C[C@H]1[C@@H](NC(=O)c1ccccc1)c1ccccc1	inactive: -12.1%	
COC(C[C@H](O)CC(=O)[C@H](C)OCc1ccccc1)OC	inactive: 0.411%	
Cc1cc2ccccc2n1CCNC(=O)c1ccc(S(=O)(=O)N2CCCCC2)cc1		active: 14.1 µM
CCN1C(=NCC2CC2)N[C@@H](c2cccc(C(F)(F)F)c2)C(C(=O)OC)=C1C	inactive: -7%	
CC(=NCCCn1ccnc1)c1c(C)[nH]n(-c2ccc([N+](=O)[O-])cc2)c1=O		active: 39.8 µM
COc1ccc([C@@H](OC)[C@@]2(Cc3ccc(O)cc3)N=C(N)N(C)C2=O)cc1	inactive: 0.515%	
C=CC[C@H](CC(=O)N(CCO)Cc1ccccc1)C(=O)NC[C@@H](OC(=O)[C@@H](CC=C)Cc1ccc(F)cc1)c1ccccc1	inactive: 0.412%	
Cc1cccc(N=C2NC(=O)/C(=C/c3cccs3)S2)c1	inactive: -10.8%	
CCSc1nc2ccccc2n1C(=O)/C=C\c1ccc(OC)c(OC)c1	inactive: -17.5%	
C=CCC[C@@H](Cc1ccc(F)cc1)C(=O)OC[C@@H]1CCCN1C(=O)[C@@H](CC=C)CC(=O)N[C@@H](CO)Cc1ccccc1	inactive: -0.133%	
O=C(c1ccccc1)c1sc(N2CCCCCC2)nc1-c1ccccc1	inactive: -8.6%	
COc1ccccc1-c1sc2cc3c(cc2c1C#Cc1ccccn1)OCO3		active: 31.6 µM
C[C@H](CO)N1C[C@H](C)[C@@H](CN(C)C(=O)Nc2ccc(C(F)(F)F)cc2)Oc2c(cccc2N(C)C)C1=O		active: 3.98 µM
O=C1CCC/C=C/C[C@@H](CC(=O)N(CCO)Cc2ccccc2)C(=O)NC[C@H](c2ccccc2)O1	inactive: 0.928%	
COC(C[C@@H](O)CC(=O)[C@H](C)OCc1ccccc1)OC	inactive: 2.15%	
Oc1ccc(-c2sc(Nc3ccccc3)n[n+]2-c2ccc(F)cc2)cc1		active: 39.8 µM
CC(=O)N1c2ccccc2[C@@H](C)[C@@H]1C	inactive: 1.02%	
CCOC(=O)C1=C(c2ccccc2)O/C(=C(\C(=O)OC)C(F)(F)F)S1	inactive: -6.74%	
CC(C)(C)OC(=O)C[C@@H]1C/C=C\C[C@H](CC(=O)N[C@H](CO)Cc2ccccc2)C(=O)N[C@H](Cc2ccccc2)COC1=O	inactive: -9.31%	
Cc1ccccc1C(=O)NCC(c1ccco1)N1CCc2ccccc2C1 (stereo unspecified)		active: 39.8 µM

Compound	activity, negative = inhibition	Potency
O=C1O/C(=C/c2ccccc2)c2ccccc21	inactive: 3.79%	
CCOC(=O)C1CCCC(NS(=O)(=O)c2ccc(NC(C)=O)cc2)C1 (stereo unspecified)	inactive: 0.943%	
N#CN=C(N)c1ccccc1	inactive: -4.12%	
O=c1[nH]c(/C=C\c2cccnc2)c([N+](=O)[O-])c(=O)[nH]1	inactive: -19.9%	
Cc1cc(C)c(S(=O)(=O)NCCn2c(C)cc3ccccc32)c(C)c1		active: 35.5 µM
Cc1c2cc(O)c(=O)cc-2oc2cc(O)c(O)cc12	inactive: -7.79%	
Cc1cc(C[n+]2ccsc2N)c2ncccc2c1		active: 39.8 µM
Cc1cccc(C(=O)O[C@@H]2[C@H](Cc3ccccc3)NS(=O)(=O)[C@H]3C[C@@H]4C=C[C@]23O4)c1	inactive: -0.387%	
CCCc1nn2c(N)c(/C=C3\C=Nc4ccccc43)c(=O)nc2s1	inactive: 2.25%	
COc1cc(NC(=O)[C@@H]2CCCN2S(=O)(=O)c2cccc3cccnc23)cc(OC)c1OC	inactive: -13.3%	
CCN1C(=S)N[C@@H](c2cccs2)C(C(=O)OC)=C1C	inactive: -1.67%	
C=CC[C@@H](CC(=O)N(CCO)Cc1ccccc1)C(=O)NC[C@H](OC(=O)[C@@H](CC=C)Cc1ccc(F)cc1)c1ccccc1	inactive: 1.85%	
CCc1ccc(C2C(C#N)=C(N)SC(N)=C2C#N)s1		active: 35.5 µM
C/C(=C/C(=O)N1CCc2ccccc21)C(=O)O	inactive: -1.07%	
NC(=NCCCCCCN=C(N)/N=C(\N)Nc1ccc(Cl)cc1)/N=C(\N)Nc1ccc(Cl)cc1		inactive
Cc1cc2nc3ccc(=[N+](C)C)cc-3sc2cc1N		active: 31.6 µM
CCOC(=O)/C(C#N)=C/c1ccc(N2CCN(C)CC2)cc1	inactive: 0.589%	
CC(C)(C)OC(=O)C[C@H]1C/C=C\C[C@H](CC(=O)N[C@H](CO)Cc2ccccc2)C(=O)N[C@@H](Cc2ccccc2)COC1=O	inactive: -0.0344%	
COc1ccccc1-c1sc2ccccc2c1-c1ccc2c(c1)OCCO2		active: 20 µM
CC1(C)S[C@@H]2[C@H](NC(=O)[C@H](N)c3ccccc3)C(=O)N2[C@H]1C(=O)O	inactive: 1.47%	
C=CCC[C@@H](Cc1ccc(F)cc1)C(=O)OC[C@@H]1CCCN1C(=O)[C@H](CC=C)CC(=O)N[C@H](CO)Cc1ccccc1	inactive: -1.71%	
NS(=O)(=O)c1ccc(NC(=S)NC(=O)c2ccco2)cc1	inactive: 1.28%	
C[C@@H](NC(=O)[C@@H]1Cc2ccccc2CN1)C(=O)Nc1ccc2c(c1)OCCO2	inactive: 3.33%	
Cn1ncc2c(NCc3ccccc3)ncnc21	inactive: -0.151%	
C#CCn1c(=NC(=O)c2cc(Cl)sc2Cl)sc2cc(S(N)(=O)=O)ccc21		active: 50.1 µM
C=CC[C@@H](CC(=O)N(CCO)Cc1ccccc1)C(=O)NCCOC(=O)[C@H](CC=C)CC(=O)OC(C)(C)C	inactive: -0.126%	

Compound	activity, negative = inhibition	Potency
CCOC(=O)/C(C#N)=C/C1=C(N2CCCC2)CC(C)(CC)OC1 (stereo unspecified)	inactive: -5.7%	
CC(C)(C)OC(=O)C[C@@H]1C/C=C\C[C@H](CC(=O)N[C@@H](CO)Cc2ccccc2)C(=O)N[C@H](Cc2ccccc2)COC1=O	inactive: 0.271%	
COc1ccc(-c2csc(NC(=O)c3ccc(S(=O)(=O)N4CCc5ccccc5C4)cc3)n2)c(OC)c1		active: 50.1 µM
CC1(C)CC(=O)C/C(=N\NC(=O)C2CC23CCC3)C1 (stereo unspecified)		active: 50.1 µM
COc1cc(/C=C2\SC(=S)N(CCC(=O)Nc3ccccc3)C2=O)cc(OC)c1OC	inactive: -7.59%	
Cc1csc(CNc2ncnc3ccc(-c4cccc(Cl)c4)cc23)c1	inactive: -2.45%	
CCN1C(=O)[C@H]2[C@@H](c3ccc(-c4ccc(Cl)c(Cl)c4)c(OC)c3)N3CCCC[C@@]3(C(=O)OC)[C@H]2C1=O	inactive: -5.15%	
Cn1c(=O)c2c(nc(Oc3ccccc3)n2C)n(C)c1=O	inactive: 0.256%	
COc1cc(NC(=O)[C@H]2CCCN2S(=O)(=O)c2cccc3cccnc23)cc(OC)c1OC	inactive: 0.549%	
CCN(CC)CCOc1ccc(/C(=C(\Cl)c2ccccc2)c2ccccc2)cc1	inactive: 1.07%	
CCCCSc1cnn(-c2ccccc2)c(=O)c1SCCCC		active: 39.8 µM
C=CC[C@H](CC(=O)N(CCO)Cc1ccccc1)C(=O)NCCOC(=O)[C@@H](CC=C)CC(=O)OC(C)(C)C	inactive: -0.771%	
CCN1C(=NCCOC)N[C@@H](c2cccc(C(F)(F)F)c2)C(C(=O)OC)=C1C	inactive: 0.361%	
O=C(OCC#CCSc1nnc(-c2cccc3ccccc23)o1)c1cccc2[nH]ccc12	inactive: -2.66%	
CN(C)c1ccc(N/C=C/C(=O)C(F)(F)F)cc1		active: 25.1 µM
CCc1ccccc1N1C[C@@]23C=C[C@@H](O2)C(C(=O)OCC(C)C)[C@H]3C1=O (stereo partly specified)	inactive: -5.93%	
C=CC[C@H](CC(=O)N(CCO)Cc1ccccc1)C(=O)NC[C@H](OC(=O)[C@@H](CC=C)Cc1ccc(F)cc1)c1ccccc1	inactive: -2.93%	
NC(=O)C1CCN(c2nc(-c3ccccc3Br)cs2)CC1	inactive: 3.78%	
O=C(CN1CCN(Cc2ccccc2)CC1)N/N=C\C=C/c1ccco1	inactive: -1.46%	
CN1CCN(C(=O)CCN2C(=O)/C(=C\c3ccc(F)cc3)SC2=S)CC1	inactive: 2.04%	
CC(C)(C)OC(=O)C[C@H]1C/C=C\C[C@H](CC(=O)N[C@H](CO)Cc2ccccc2)C(=O)N[C@H](Cc2ccccc2)COC1=O	inactive: -0.398%	
CCN1/C(=C/c2ccc3cc(C)ccc3[n+]2CC)Sc2cc(C)c(C)cc21	inactive: -3.53%	
C[C@]12CCC[C@H](O1)[C@H]([C@@H](O)c1ccccc1)O2	inactive: 3.41%	
CCN1C(=S)N[C@@H](c2ccccc2)C(C(=O)OC)=C1C	inactive: 0.379%	
